Experimental data taken from PubChem BioAssay AID686979 (National Center for Advancing Translational Sciences (NCATS), 2013).
Several values for one entry are separate records, joined by “and”; a condition that tells them apart may be missing. Identical values can stand only once. In all, about 420,000 compounds went through this assay and about 50,000 (12%) were called active. This list was built around the results that the source calls inconclusive (neither active nor inactive); the mix of calls is not that of the screen. Calls come from the whole dose curve; as a rule, active = well fitted inhibition curve with a large enough effect; inconclusive = small, poorly fitted or top-dose-only effect; inactive = flat fitted curve, though single readings scatter. A potency beside an inconclusive call is a rough fit, not a confirmed value.

Test: qHTS for Inhibitors of human tyrosyl-DNA phosphodiesterase 1 (TDP1): qHTS in cells in presence of CPT; note: nearly all actives have a fitted effect of over 55% in size
Conditions: chicken DT40 Tdp1-/-;hTDP1 cells + 20 nM CPT, ATP luminescence, 48 h; series mostly up to 46.2 µM
How it was run: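 Cell growth measured by CellTiter-Glo luminescence after a minimum 48 h, 37 C compound exposure with 20 nM CPT in Tdp1-knockout DT40 cells stably expressing hTDP1, seeded 400/well; qHTS titration format.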
Potency is the fitted concentration of half-maximal effect; tags give direction and shape of the fitted curve.

SMILES	Potency
O=C(Nc1cccc(F)c1)N1CCCC2(CCN(S(=O)(=O)c3ccccc3)CC2)C1	inactive
N[C@H](C(=O)O)c1ccc(O)c(C(=O)O)c1	inactive
Cc1ccc(CNC(=O)C2(NC(=O)Nc3ccc(C)cc3)CCCCC2)cc1	inconclusive: 29.1 µM [inhibitor, single point]
COc1cccc(COC(=O)C2CCN(S(=O)(=O)c3ccc(C)cc3C)CC2)c1OC	inactive
COCCN1C(=O)c2[nH]nc(-c3cc(C)ccc3O)c2C1c1ccc(C(C)C)cc1 (configuration not stated)	inconclusive: 16.4 µM [inhibitor, single point]
O=C(NCc1ccc(F)cc1)c1ccccc1OCc1ccccc1	inactive
Cc1ccc(NC(=O)C2CCN(c3nc4ccccc4[nH]3)CC2)c(C)c1	inconclusive: 29.1 µM [inhibitor, single point]
COC(=O)c1cnc(N2CCN(c3ccccc3F)CC2)c2ccccc12	inconclusive: 20.6 µM [inhibitor, single point]
C/C(CC(=O)Nc1cc(Cl)ccc1Cl)=N\NC(N)=S	inconclusive: 14.6 µM [inhibitor, single point]
CCn1ncc(Cl)c1C(=O)NC(=S)Nc1c(C)cc(C)cc1[N+](=O)[O-]	inconclusive: 29.1 µM [inhibitor, single point]
COc1ccc(OC)c(NC(=O)c2c(NCc3cccs3)sc3c2CCCC3)c1	inconclusive: 20.6 µM [inhibitor, single point]
Cc1ccc(OCC(=O)N(Cc2ccc(C)o2)C2CCS(=O)(=O)C2)cc1 (configuration not stated)	inactive
COCCN1C[C@@H](CO)O[C@@H](n2cnc3c(NCc4ccc(F)cc4)ncnc32)C1	inactive
O=C(Cc1ccccc1)Nc1cccc(-c2cn3cccnc3n2)c1	inconclusive: 20.6 µM [inhibitor, single point]
Brc1ccc(-c2cn3nc4c(nc3n2)CCCC4)cc1	inactive
COc1ccc(-c2cn(-c3ccc(C)cc3C)c(=S)[nH]2)cc1OC	inconclusive: 29.1 µM [inhibitor, single point]
O=C(O)/C=C/C(=O)Nc1ccc(-n2nccc2C(F)(F)F)cc1	inactive
CCN1C(=O)/C(=C\N2CCN(c3cccc(Cl)c3)CC2)SC1=S	inactive
COc1ccccc1NC(=O)NCCN1CCN(c2cccc(Cl)c2)CC1	inconclusive: 23.1 µM [inhibitor, partial curve]
Cc1cccc(C)c1-n1ncc(C(=O)N2CCN(c3ccccc3)CC2)c1C1CCN(C(=O)OC(C)(C)C)CC1	inconclusive: 29.1 µM [inhibitor, single point]
CCOc1ccc(S(=O)(=O)Nc2ccc3c(c2)N(C(C)=O)CCC3)cc1	inconclusive: 29.1 µM [inhibitor, single point]
COC(=O)C(C)Sc1ncnc2c1c(-c1ccccc1)cn2-c1ccc(F)cc1 (configuration not stated)	active: 4.11 µM
CCOC(=O)C1(CCc2ccccc2)CCN(C(=O)c2ccoc2)CC1	inactive

SMILES	Potency
Cc1cccn2cc(CSc3nnc(Nc4ccc(C(C)C)cc4)s3)nc12	inconclusive: 29.1 µM [inhibitor, single point]
CN(CC(=O)Nc1cccc(C(F)(F)F)c1)S(=O)(=O)c1cccs1	inconclusive: 16.4 µM [inhibitor, single point]
COc1ccccc1N1CCN(C(=O)CN(Cc2ccc(Cl)cc2)S(C)(=O)=O)CC1	inconclusive: 11.6 µM [inhibitor, partial curve, poor fit]
Cc1ccc(CNS(=O)(=O)c2cc3c(cc2C)NC(=O)CO3)cc1	inconclusive: 32.6 µM [inhibitor, single point]
CC(=O)c1cc2c(cc1NC(=O)CN1CCCCCCC1)OCO2	inconclusive: 32.6 µM [inhibitor, single point]
O=c1c(Cc2ccccc2O)c(O)nc2n1CCCS2	inconclusive: 16.4 µM [inhibitor, partial curve, poor fit]
C[C@H](NC(=O)[C@@H]1Cc2ccccc2CN1)C(=O)NCC1CCCO1 (some centres not stated)	inconclusive: 29.1 µM [inhibitor, single point]
Cc1ccc(C)c(N2CCN(C(=O)c3csc(C)c3C)CC2)c1	inconclusive: 29.1 µM [inhibitor, single point]
O=C(c1ccc(CSc2nc3ccncc3n2Cc2cccc(F)c2)cc1)N1CCCCCC1	inconclusive: 29.1 µM [inhibitor, single point]
O=C(CN1CCN(CN2C(=O)NC3(CCCCCC3)C2=O)CC1)Nc1cccc(F)c1	inconclusive: 18.4 µM [inhibitor, single point]
CCCS(=O)(=O)N1CCN(CCN2C(=O)c3cccc4cccc(c34)C2=O)CC1	inconclusive: 18.4 µM [inhibitor, single point]
COc1ccc(C2=Nn3c(nnc3-c3ccccc3OC)SC2)cc1OC	active: 70.8 nM and active: 5.2 nM
C[C@@]12C(=O)N(Cc3ccccc3)CC(=O)N1[C@H]1c3cc(Cl)ccc3OC[C@@H]1[C@@H]2c1ccccc1	inconclusive: 16.4 µM [inhibitor, single point]
CCOC(=O)C1CCCN(C(=O)Cn2nc(CC)n3c(cc4sccc43)c2=O)C1 (configuration not stated)	inconclusive: 16.4 µM [inhibitor, single point]
CC(Oc1ccc(Br)cc1Cl)C(=O)Nc1ccncc1 (configuration not stated)	active: 8.2 µM
COc1ccc(CN2CCN(C(=O)c3ccccc3F)CC2)c(OC)c1OC	inactive
CCC(Cn1nnc2ccccc2c1=O)NC(=O)Nc1ccc(C)c(C)c1 (configuration not stated)	inconclusive: 14.6 µM [inhibitor, single point]
O=C(COC(=O)c1ccc2ccccc2n1)Nc1ccccc1F	inactive
CCN(C(=O)Cn1nc(C)c([N+](=O)[O-])c1C)c1c(N)n(Cc2ccccc2)c(=O)[nH]c1=O	inactive
O=[N+]([O-])c1ccc(N/N=C/c2c[nH]c3ccccc23)c(S(=O)(=O)Nc2ccc(Cl)cc2)c1	inconclusive: 29.1 µM [inhibitor, single point]
CC1CCCCN1c1nnc(NC(=O)Nc2ccccc2F)s1 (configuration not stated)	inconclusive: 16.4 µM [inhibitor, single point]
Cc1ccc(/C=C/c2nc3ccccc3[nH]2)cc1	active: 10.3 µM
N#CCn1cc(/C=N/NC(=O)c2cc3c(ccc4ccccc43)o2)c2ccccc21	active: 20.6 µM

SMILES	Potency
CCOc1cc2c(cc1O)C(=NOC)CC1C2CCC2(C)C(O)CCC12 (configuration not stated)	active: 0.92 µM
O=C(NCCCn1ccnc1)/C(=C/c1ccccc1)NC(=O)c1ccccc1	inconclusive: 25.9 µM [inhibitor, single point]
COc1ccc(-c2ccccc2)cc1NC(=O)c1cccs1	inactive
COc1ccc([C@@H]2C[C@@H](c3ccccc3)Oc3cc(OC)c(OC)c(OC)c32)cc1	inconclusive: 18.4 µM [inhibitor, single point]
O=C(c1ccco1)c1cn(CCOc2ccc(F)cc2)c2ccccc12	inconclusive: 29.1 µM [inhibitor, single point]
N#C/C(=C\c1coc2ccc(O)cc2c1=O)C(=O)Nc1nc2ccccc2s1	active: 9.2 µM
CC1CCCN(C(=O)c2cc3c(Cl)nc4ccccc4c3s2)C1 (configuration not stated)	inconclusive: 29.1 µM [inhibitor, single point]
Cc1ccc(OCc2nc3ccccc3n2CCOc2ccc(Cl)cc2)cc1	inconclusive: 29.1 µM [inhibitor, single point]
CCc1cc(C(=O)N2CCCc3ccccc32)sc1C	inconclusive: 29.1 µM [inhibitor, single point]
CS(=O)(=O)CCC(C(=O)Nc1cccc(C(F)(F)F)c1)N1Cc2ccccc2C1=O (configuration not stated)	inactive
COc1cccc(NC(=O)CN(C)C(=O)/C=C/c2cn(-c3ccccc3)nc2-c2cccs2)c1	inconclusive: 29.1 µM [inhibitor, single point]
CS(=O)(=O)Nc1ccc(C2=NN(C(=O)c3ccco3)C(c3ccccc3)C2)cc1 (configuration not stated)	inconclusive: 16.4 µM [inhibitor, single point]
Cc1cc(C)c(S(=O)(=O)c2ccc(C(C)(C)C)cc2)c(Cl)n1	inconclusive: 6.51 µM [inhibitor, full curve, poor fit]
O=C(NC1CCS(=O)(=O)C1)c1ccc(-c2ccc(Br)cc2)o1 (configuration not stated)	inconclusive: 20.6 µM [inhibitor, single point]
O=C(O)c1cccc2c1C(=O)N(C1CCCCC1)C2	inconclusive: 23.1 µM [inhibitor, single point]
COc1cccc(NC(=O)CC(=O)c2ccc([N+](=O)[O-])cc2)c1	inconclusive: 29.1 µM [inhibitor, single point]
C/C(N)=C(/C#N)C(=O)CSc1nc2ccccc2[nH]1	inconclusive: 28.2 µM [inhibitor, single point]
CCOC(=O)/C=C/c1ccc(C(F)(F)F)cc1S(=O)(=O)NC(C)(C)C	inconclusive: 31.6 µM [inhibitor, partial curve, poor fit] and inconclusive: 29.1 µM [inhibitor, single point]
O=C(CCc1nnc(CCCCc2ccccc2)o1)N(CCO)Cc1ccccc1	inconclusive: 16.4 µM [inhibitor, single point]
O=C(CSc1ccc(Cl)cc1)Nc1nnc(-c2ccco2)o1	inconclusive: 29.1 µM [inhibitor, single point]
CC(C)[C@H](NC(=O)c1ccccc1)C(=O)OCC(=O)c1ccc(S(=O)(=O)N2CCCCC2)cc1	inconclusive: 20.6 µM [inhibitor, single point]
